The supplement of paper PMC11417369
± gives the standard deviation of the averaged measurements. The list shows a part of the results.

What follows are sequences tested on PfAP2-LT AP2 domain (GST-tagged) (assay: gcPBM binding intensity (ln(normalized median fluorescence intensity)); higher = stronger DNA binding).
Summary of the method: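 The highest Masliner-normalised natural-log median intensity across replicate spots of either probe orientation is reported as binding intensity. GST-tagged P. falciparum DNA-binding domains expressed in E. coli were applied for 1 h to an Agilent 4 × 180k array of primer-extended double-stranded 36-bp intergenic genomic probes plus negative controls, and bound protein was detected with Alexa488 anti-GST antibody and scanned at 488 nm.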

Row | Sequence | gcPBM binding intensity (ln)
1 | CTTTTTAAATTAAAATGTACAGAAAAATATTATTAT [XGTACX_site8760] | 8.22 ± 0.41
2 | TATTTTTCTTTTTTTTTTTTTTTTATATTATACGTG [XGTACX_negctrl_site363] | 8.54 ± 0.56
3 | ATCATATGTATGCATACACACAAAAAGTTATTTATA [CACACA_site6325] | 9.11 ± 0.3
4 | GAAAATCAGTTAAACACACACATAAAAAAAAAAAAA [CACACA_site2875] | 9.31 ± 0.59
5 | ATATATACTATATTTTAACACACAAAAAAAAAAAAT [CACACA_site8277] | 8.86 ± 0.48
6 | CTCAATATTATTACTACACACAAATTAATATTTTCC [CACACA_site55] | 8.85 ± 0.48
7 | CTTTTTTCAAGACACACACACAAGAAAATATAAATA [CACACA_site7455] | 9.36 ± 0.46
8 | TGTTAATTGAATGCAATCTGAATTTTTTTACATAAT [CACACA_negctrl_site1002] | 8.5 ± 0.45
9 | TATTTGTAAATCGATACACACATATATCTTAATATA [CACACA_site4273] | 8.8 ± 0.32
10 | CGGCACGTGATATATACACACATATAGATATATACA [CACACA_site6408] | 9.27 ± 0.47
11 | TGGATAATGAATGATGCACACTAAAAATATTCTACA [CACACA_site5912] | 9.02 ± 0.47
12 | AATTTTATACGATAAACATGCAAATAAATAAATAAA [TGCATGCA_site227] | 8.62 ± 0.53
13 | AAAGAAAAAAAAAACACACACACACCCATTCAATAT [CACACA_site38] | 10.29 ± 0.035
14 | TTTATTATATAAACATGTACACAATTTGGTATATTC [XGTACX_site3112] | 8.79 ± 0.47
15 | TATAATAATATTTATTGTACAATTAGTTTAATTCAT [XGTACX_site272] | 8.69 ± 0.45
16 | ACAGCCAATACGGAAACACACAAGTTATTTTATCAT [CACACA_site5507] | 9.04 ± 0.49
17 | TATATGCCTATAAGAAGTACTGTGTAATGTAATATA [XGTACX_site8089] | 8.8 ± 0.53
18 | AAGAAAAATATATTTATATATATATATATTAAATAT [TGCATGCA_negctrl_site500] | 8.6 ± 0.35
19 | TAAACATAAATATGCACACATATACATATATTCATA [CACACA_site2667] | 8.98 ± 0.38
20 | CTACATAATAAAAAAAGTACATTCTAATAAATTGAC [XGTACX_site4504] | 8.71 ± 0.54
21 | ACTAATAATTTGTCGGTGCATAAAATTATTTTTATT [GTGCAC_site9840] | 8.73 ± 0.36
22 | AAATTATGCATCGAGGTGCGTCTTAAAATATAGTGG | 8.9 ± 0.3

Row | Sequence | gcPBM binding intensity (ln)
23 | ATATAAATTCAAATTACACACATTTATTTTTTTTAC [CACACA_site53] | 8.88 ± 0.49
24 | ATGATAAAATTATGTAGTACATATTTGAATGTAAAT [XGTACX_site688] | 8.97 ± 0.43
25 | ATATATGTAACATATTGTACATATATGTATGTATGT [XGTACX_site3281] | 9.13 ± 0.46
26 | ATTCATAAAAGTTGTACATGCAATTTTTTTTTTTTT [TGCATGCA_site270] | 8.58 ± 0.42
27 | ATTTTGTTATGAAACACACACATATATATATATATA [CACACA_site3650] | 9.67 ± 0.31
28 | TAATTTCTTATGTAGTGTACAAATAATATATGATAT [XGTACX_site597] | 8.61 ± 0.32
29 | TAATCGGTAATATTAACACACACATTTATATATATT [CACACA_site8274] | 9.28 ± 0.31
30 | AATATCTGTATATCCACACACATATATATATATATA [CACACA_site4987] | 9.73 ± 0.11
31 | ATTATTCATATAACACGTACAAAACGAAAAACAAAT [XGTACX_site3873] | 8.97 ± 0.35
32 | GTATTAATAAAAATACGTACTTATTATTTATAATAA [XGTACX_site7672] | 8.38 ± 0.48
33 | AATATCACCACATTGTTACTATAATATATAAAAAAG [XGTACX_negctrl_site384] | 8.62 ± 0.41
34 | AAAAGGAGAAATATTGCACACGTGCAAAATGGTATG [CACACA_site4300] | 9.2 ± 0.42
35 | TTTACTCCTACAACATGTACATAAAATAAATTTTTT [XGTACX_site5010] | 8.55 ± 0.41
36 | ACATGTTAACTAAATGTACACACCTATGTTGATGTA [CACACA_site1821] | 9.15 ± 0.24
37 | TTATTTACAACTTTTTTTTTTTTATTTTATTTTATT [CACACA_negctrl_site341] | 8.56 ± 0.52
38 | GAAATGTGGTAATATACACACACGCATATATTTATA [CACACA_site6285] | 9.29 ± 0.3
39 | TTTGAACTCTTAAGTGGTACAAATTTGTATTTTCTC [XGTACX_site2322] | 8.78 ± 0.34
40 | ACATAGCAATGTTTCACACACAAGAAAAAATACAAT [CACACA_site2379] | 9.33 ± 0.47
41 | AATGGAATATATATTTGTACATAAATATTATAATAA [XGTACX_site8524] | 8.7 ± 0.42
42 | TATAAATAAAAATATACACACTGTATTATTGTAATA [CACACA_site7721] | 8.74 ± 0.44
43 | TATTATTATTATTACACACACAATTATATTTACCCC [CACACA_site503] | 9.45 ± 0.36
44 | TCGTGGTTTTAATAAGTGCGCAATTTAAATATTTTT | 8.96 ± 0.38
